Assay results: PubChem BioAssay AID2094 (Broad Institute, 2009)
“And” between values parts separate entries of the source, which are not always exact repeats. Equal values may be shown once. About 1,200 (0.4%) of roughly 300,000 compounds were called active. Inconclusive results, whose numbers are uncertain, are shown with a selection of clear calls. Rule as the data show it: active = activity change below about -75% (passing the limit was not always enough); inconclusive = no clear call, values can overlap the other calls.

Assay: Vibrio harveyi AI-2 quorum sensing modulators, primary screen, JMH597 strain, luminescence/OD600 ratio (AID 2094);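 also: luminescence divided by OD600 gain over 9 h not by final OD600 alone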
Settings: Vibrio harveyi JMH597 AI-2 luminescence/OD600 ratio, 9 h; at 7.5 µM; stronger effect = lower value; 0 = neutral-control median; strain lacks LuxN and CqsS sensors

Structure (SMILES)	activity change
O=C(C1CCCO1)N1CCN(S(=O)(=O)c2cc(F)ccc2F)CC1 (configuration not stated)	inactive: 10.5%
O=C(Nc1nccs1)c1c(O)c2cccc3c2n(c1=O)CCC3	inconclusive: -71.9%
COc1cc(NC(=O)Cn2nnc(-c3ccccc3N)n2)cc(OC)c1	active: -89.4%
CCCCC(=O)OCC(=O)Nc1ccc(SC(F)F)cc1	inconclusive: -54%
Cc1ccccc1Nc1nc(N)nc(COc2ccc(C#N)cc2)n1	active: -83.4%
Cc1cc(NC(=O)COC(=O)c2c(C)noc2C)ccc1Br	active: -91.1%
O=C(NC(=S)NNC(=O)c1ccco1)c1ccccc1	inconclusive: -5.6%
Cc1ccc(NS(=O)(=O)c2ccc3[nH]c(=O)sc3c2)cc1	inconclusive: -72.7%
C/C(=N\Nc1ccc(C(=O)O)cc1)c1ccc(-n2ccnc2)cc1	inactive: 22.8%
Cc1cc(N2C(=O)C=CC2=O)c([N+](=O)[O-])cc1C	inconclusive: 3.43%
O=C(Nc1cc(Cl)c(O)c(Cl)c1)C1CCCO1 (configuration not stated)	inactive: -7.39%
COC(=O)[C@@H](Cc1c[nH]c2ccccc12)NC(=O)C1CCCN(S(=O)(=O)c2ccc(C)cc2)C1 (some centres not stated)	inactive: 12.9%
CCCCCCOc1ccc(N2C(=O)CC(SCCN)C2=O)cc1 (configuration not stated)	active: -85.4%
Cc1ccc(NC(=O)CNC(=O)c2ccc(Br)o2)nc1	inconclusive: -74.2%
CC(=O)c1cccc(NC(=O)C2CC(c3ccc(F)cc3)=NO2)c1 (configuration not stated)	active: -90.5%
O=C(Nc1ccc(Cl)cn1)c1ccc(-c2cc(Cl)ccc2Cl)o1	inconclusive: -192%
Cc1cccc(-n2c(C)n[nH]c2=S)c1C	inactive: 9.2%
CCc1ccc(CN(C)C(=O)c2cc(COc3cccc(C(F)(F)F)c3)on2)nc1	active: -83.4%
Cc1cccc(NC(=O)Nc2ccc3c(c2)CCC3)c1	inconclusive: -66.9%
Clc1ccc(-c2nc(-c3ccncc3)no2)c(Cl)c1	inactive: 17.4%
COc1cccc2c1O/C(=N\O)C(C(=O)Nc1cccc(Br)c1)C2 (configuration not stated)	inconclusive: -64.3%
O=c1[nH]c(-c2ccccn2)nc(C(F)(F)F)c1Br	inconclusive: -80.9%
Cc1ccc(-c2[nH]c3ccccc3c2C(C[N+](=O)[O-])c2ccco2)cc1 (configuration not stated)	inconclusive: -68.4%
CCS(=O)(=O)c1ccc(O)c(NC(=O)Nc2cccc3ccccc23)c1	inconclusive: -71.1%

Structure (SMILES)	activity change
COc1ccc(C(=O)NC2CC2)cc1OC1CCN(Cc2cnn(C)c2C)CC1	inactive: 21.8%
O=C(c1ccc(S(=O)(=O)N2CCCCC2)cc1)N1CCCC(C(F)(F)F)C1 (configuration not stated)	inactive: 38%
COc1ccc(-c2cc(=O)[nH][nH]2)cc1	inactive: 2.82%
CC1(C)CC(=O)C(C(c2ccco2)C2C(=O)CC(C)(C)CC2=O)C(=O)C1	inactive: 22.1%
Cc1nc2ccccc2c2c1CC(C)S2 (configuration not stated)	inactive: 15.9%
O=C(O)c1ccc(NCc2ccc3c(c2)OCO3)cc1	active: -91.8%
O=C(COC(=O)c1cc2ccccc2o1)c1ccccc1	inconclusive: -39.1%
COc1ccc(-n2nnnc2S(=O)(=O)Cc2ccc(C(=O)O)cc2)cc1	inactive: -49.4%
Cc1oc(C(C)(C)C)cc1C(=O)Nc1ccc2c(c1)OCCO2	inconclusive: -153%
Cc1c(C(=O)Nc2cccc(F)c2)cnn1-c1ccccc1	inactive: 4.67%
COc1ccccc1N1CC(C(=O)Nc2nnc(SCC(=O)N3CCOCC3)s2)CC1=O (configuration not stated)	inactive: -0.143%
CCCOc1ccc(CCC(=O)N/N=C/c2ccc([N+](=O)[O-])o2)cc1	active: -224%
Nn1c(SCc2ccc([N+](=O)[O-])cc2)nc2ccccc2c1=O	active: -96.8%
CC(=O)NC(=S)NNC(=O)c1ccc(Br)cc1	inconclusive: -83.2%
CCc1ccccc1NC(=O)c1ccc([N+](=O)[O-])s1	inconclusive: -39.1%
O=C(O)c1ccc(C[n+]2c(-c3ccccc3)csc2Nc2ccccc2)cc1	inactive: 10.3%
O=C(O)CC1S/C(=N/N=C/C=C/c2ccccc2)NC1=O (configuration not stated)	inactive: 34% and inactive: 27.7%
CC(=O)NC(=S)NNC(=O)CCc1ccccc1	inconclusive: -74.4%
COC(CNC(=O)c1ccc2c3c(onc13)-c1ccccc1C2=O)OC	inactive: 14.8%
Cc1ccc(S(=O)(=O)n2ccc(OC(=O)c3cccs3)n2)cc1	inconclusive: -37.7%
O=C(Oc1ccc2c(=O)c(Oc3ccc4ccccc4c3)coc2c1)c1cncc(Br)c1	active: -83.1%
O=C(N/C=C/c1ccco1)OCc1ccccc1	inconclusive: -76.1%
O=C(N/N=C/c1ccc([N+](=O)[O-])o1)C1CCCC1	inconclusive: -56.5%
